In the supplement of paper PMC12217912:
The list shows a part of the results. Sequences were assembled here from the parent chain. Inactive controls read about 0.05.

B1: TEV protease; numbered along this chain (parent)
chain: MGESLFKGPRDYNPISSSICHLTNESDGHTTSLYGIGFGPFIITNKHLFRRNNGTLVVQSLHGVFKVKDTTTLQQHLVDGRDMIIIRMPKDFPPFPQKLKFREPQREERICLVTTNFQTKSMSSMVSDTSCTFPSGDGIFWKHWIQTKDGQCGSPLVSTRDGFIVGIHSASNFTNTNNYFTSVPKNFMELLTNQEAQQWVSGWRLNADSVLWGGHKVFMVKPEEPFQPVKEATQL

Variants of: B1
Assay: raw area under fraction-flipped curve 0-4 h after induction (AUC4h, not background-subtracted), DNA-recorder readout of cleavage of the substrate (dimensionless); higher = more cleavage of the substrate by the protease variant
Settings: temperature: 34 °C; time window: 0-4 h after rhamnose induction
Procedure: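 In vivo DNA recorder in E. coli TOP10(DE3) ΔrhaA at 34 °C. Each TEVp single-site mutant (parent TEVp 0) is paired with a single-site variant of the 7-mer TEVs (canonical ENLYFQ|S). The substrate sits between flexible linkers in a Bxb1-sfGFP-TEVs-SsrA fusion, so cleavage stabilises Bxb1 and speeds flipping of a recombination array, read by NGS. The value is the raw area under the fraction-flipped curve over 0-4 h after rhamnose induction (AUC4h), with ≥20 reads per time point. It is not background-subtracted; inactive controls average about 0.047.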
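Further: Bxb1 expression induced with 0.2% (w/v) L-rhamnose at OD600 near 0.5, cultures sampled hourly, flipped fraction per protease–substrate barcode pair counted by paired-end Illumina sequencing.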

Variant	area with substrate ENLAFQS	area with substrate ENLCFQS	area with substrate ENLDFQS	area with substrate ENLEFQS	area with substrate ENLFFQS	area with substrate ENLHFQS	area with substrate ENLIFQS	area with substrate ENLKFQS	area with substrate ENLLFQS	area with substrate ENLNFQS	area with substrate ENLPFQS	area with substrate ENLQFQS	area with substrate ENLRFQS	area with substrate ENLSFQS	area with substrate ENLVFQS	area with substrate ENLWFQS	area with substrate ENLGFQS	area with substrate ENLMFQS	area with substrate ENLTFQS
R204M	0.0939	0.0973	0.0535	0.0759	0.107	0.0667	0.0958	0.0701	0.0784	0.0569	0.0508	0.0785	0.107	0.0628	0.0995	0.0759			
R204V	0.0567	0.0574	0.061	0.0609	0.0935	0.067	0.0762	0.0742	0.0597	0.0511	0.0523	0.0706	0.0794	0.0728		0.0726	0.0569		
P222I	0.0685	0.0627		0.0511	0.0771	0.0568	0.0784	0.0822					0.0659			0.0572	0.0668	0.0656	
K221L	0.0561	0.0627	0.0677	0.0528	0.066	0.0763	0.0849	0.0831		0.0564	0.055	0.0712	0.0837	0.0553	0.087			0.0654	
E231V	0.0719	0.0585	0.0583	0.0519	0.0621	0.0711		0.0972		0.065	0.057	0.0894	0.0707	0.0736	0.0837		0.0734		
E231N	0.0769	0.0862	0.0528	0.0632	0.0869	0.0895	0.0819	0.082	0.0718	0.0987	0.0666	0.0702		0.0678	0.0986			0.0761	
V220G	0.0593	0.0488	0.0635	0.0591	0.0862	0.0702	0.0938	0.107	0.0812			0.0629		0.0624	0.0906		0.0602	0.0752	0.0664
F218N	0.0549		0.0572		0.0559	0.0555	0.0485	0.0412	0.0573	0.0666	0.0603	0.0697	0.0383	0.0693	0.0575			0.0682	0.0769
P225K	0.0751	0.13	0.0512	0.0643	0.0858	0.073		0.111	0.0767		0.0676	0.059		0.0775		0.0649			
P225C	0.0603		0.0642	0.0675		0.0709	0.0805	0.102	0.0647	0.0554	0.0674	0.0633	0.0629	0.0785		0.0559	0.0774	0.0642	
Q234S	0.0649		0.0639	0.0613	0.0741	0.079		0.0768	0.0581	0.0626	0.053	0.0569	0.0735	0.0717		0.0681	0.0799		0.0584
Q234V	0.0676		0.0664	0.0766	0.0722			0.0658	0.0661	0.0707		0.0813	0.0741	0.0635			0.0576	0.0711	
Q234T	0.0663		0.0697	0.0666	0.0866			0.076		0.065	0.0797	0.0796	0.073	0.0645	0.0839	0.0821	0.0484	0.032	
V229Q	0.0778	0.056	0.0624		0.072	0.0729	0.0788	0.0873	0.059	0.0715	0.0822	0.051		0.0413	0.0968		0.0647		
Q227W	0.0459		0.0579			0.0833	0.0708	0.0785		0.0782		0.0761				0.0404		0.0677	0.0684
T233M	0.0549	0.0741	0.0595	0.0632	0.0772	0.0647		0.0681	0.0556	0.0808	0.0913	0.118	0.0794	0.0662	0.0814	0.0763	0.0394		
T233E	0.0643	0.0835	0.0638					0.0859				0.0455					0.0659		
F226Q	0.0651			0.0686	0.0971	0.0805		0.0786		0.084		0.0724		0.0583	0.0984	0.0832	0.0593		
F226G	0.0699	0.0695	0.0514	0.0649	0.0571	0.0638	0.0843	0.0653	0.0609	0.0645		0.0608		0.0698				0.0776	
G213R	0.066	0.0689	0.0712	0.0595	0.061	0.055	0.0534	0.0653	0.0681	0.0659	0.0643	0.0658		0.0583	0.0461	0.0499	0.0746	0.0615	
M219T	0.0529		0.0464	0.0637	0.0759		0.0657	0.0703	0.0814	0.0669	0.0627		0.0917	0.0592	0.0804			0.0752	
L211M	0.0826		0.0448	0.0649	0.0683	0.0669	0.0653	0.0729	0.0761	0.0708	0.0701	0.0539	0.0846	0.076	0.0815		0.0636	0.0639	
K230S	0.087		0.0658	0.0569	0.0888	0.0674	0.086	0.0594	0.0735	0.0746		0.0653	0.0721	0.0681	0.0907	0.0637	0.0853		0.0558
V210N	0.0547		0.0497		0.0725	0.0629		0.0702		0.0602	0.0575		0.0587	0.0722	0.045			0.0554	
E223Y	0.0699	0.0774	0.0638	0.0619	0.0793	0.0726	0.054	0.0919	0.081	0.0575	0.0635			0.0644	0.0812	0.0931	0.0653	0.0728	
